Reference: PMC5438246
These are yes or no findings as the source states them, for the method shown. Binding seen in cells or lysates may run through a third protein. Some results given as binding are weak or reduced against the parent protein; the word gives no strength. Tags and fused reporters may be left off the sequences shown.

T1: GFP:SNAP33 (Qbc-SNARE SNAP33 fused to GFP, estradiol-inducible) (Arabidopsis thaliana) (UniProt Q9S7P9)
T1 sequence: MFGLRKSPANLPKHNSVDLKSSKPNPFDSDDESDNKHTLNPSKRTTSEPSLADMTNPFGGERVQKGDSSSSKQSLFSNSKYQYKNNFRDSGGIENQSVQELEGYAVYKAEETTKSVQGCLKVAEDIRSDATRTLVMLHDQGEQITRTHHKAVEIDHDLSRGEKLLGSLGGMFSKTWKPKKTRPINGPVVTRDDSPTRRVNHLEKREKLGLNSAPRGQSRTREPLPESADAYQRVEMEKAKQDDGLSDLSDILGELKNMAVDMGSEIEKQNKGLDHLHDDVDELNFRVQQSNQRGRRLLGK

T2: YFP:NPSN11 (Qb-SNARE NPSN11 fused to YFP, estradiol-inducible) (Arabidopsis thaliana) (UniProt Q944A9)
T2 sequence: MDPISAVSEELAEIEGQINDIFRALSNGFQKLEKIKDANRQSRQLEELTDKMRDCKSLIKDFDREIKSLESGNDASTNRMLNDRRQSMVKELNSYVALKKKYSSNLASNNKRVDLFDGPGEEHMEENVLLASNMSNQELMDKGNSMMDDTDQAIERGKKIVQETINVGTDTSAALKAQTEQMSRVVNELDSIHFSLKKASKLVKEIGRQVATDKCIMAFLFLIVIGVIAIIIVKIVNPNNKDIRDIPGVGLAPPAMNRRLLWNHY


Assays:
[1] = target: T1, GFP:SNAP33 (Qbc-SNARE SNAP33 fused to GFP, estradiol-inducible) (Arabidopsis thaliana); assay: co-IP; protein extracts of Arabidopsis seedlings (wild type, big3, or gnl1 GNL1^BFA-sens.) with estradiol-induced YFP:NPSN11 or GFP:SNAP33, with or without 50 µM BFA (30 min, then BFA + 20 µM estradiol 210 min; traffic blocked at the TGN or at the ER); anti-GFP beads (GFP-trap) 2 hr in the cold; 50 mM Tris pH 7.5, 150 mM NaCl, 1 mM EDTA, 0.5% Triton X-100 (washes 0.2%); immunoblot
[2] = target: T2, YFP:NPSN11 (Qb-SNARE NPSN11 fused to YFP, estradiol-inducible) (Arabidopsis thaliana); assay: as above

binding [1] | binding [2] | Binder
no binding | binds | Qc-SNARE SYP71 (protein, UniProt Q9SF29 1-266) MTVIDILTRVDSICKKYDKYDVDKQREANISGDDAFARLYGAFETQIETALEKAELVTKEKNRAAAVAMNAEIRRTKARLSEEVPKLQRLAVKRVKGLTTEELAARNDLVLALPARIEAIPDGTAGGPKSTSAWTPSSTTSRPDIKFDSDGRFDDDYFQESNESSQFRQEYEMRKIKQEQGLDMISEGLDALKNMASDMNEELDRQVPLMDEIDTKVDRATSDLKNTNVRLKDTVNQLRSSRNFCIDIVLLCIVLGIAAYLYNVLK
– | no binding | Qbc-SNARE SNAP33 (endogenous) (protein, UniProt Q9S7P9 1-300) MFGLRKSPANLPKHNSVDLKSSKPNPFDSDDESDNKHTLNPSKRTTSEPSLADMTNPFGGERVQKGDSSSSKQSLFSNSKYQYKNNFRDSGGIENQSVQELEGYAVYKAEETTKSVQGCLKVAEDIRSDATRTLVMLHDQGEQITRTHHKAVEIDHDLSRGEKLLGSLGGMFSKTWKPKKTRPINGPVVTRDDSPTRRVNHLEKREKLGLNSAPRGQSRTREPLPESADAYQRVEMEKAKQDDGLSDLSDILGELKNMAVDMGSEIEKQNKGLDHLHDDVDELNFRVQQSNQRGRRLLGK
no binding | no binding | mRFP:PEP12 (Qa-SNARE PEP12 aka SYP21, mRFP-tagged, pKNOLLE::mRFP:PEP12) (protein, UniProt Q39233 1-279) MSFQDLEAGTRSPAPNRFTGGRQQRPSSRGDPSQEVAAGIFRISTAVNSFFRLVNSIGTPKDTLELRDKLQKTRLQISELVKNTSAKLKEASEADLHGSASQIKKIADAKLAKDFQSVLKEFQKAQRLAAEREITYTPVVTKEIPTSYNAPELDTESLRISQQQALLLQSRRQEVVFLDNEITFNEAIIEEREQGIREIEDQIRDVNGMFKDLALMVNHQGNIVDDISSNLDNSHAATTQATVQLRKAAKTQRSNSSLTCLLILIFGIVLLIVIIVVLV
